Source: the supplement of paper PMC11741623
The list shows a part of the results. Interaction screen of human proteins with wild-type SARS-CoV-2 proteins by split-DHFR complementation in yeast, 1 µg/mL methotrexate. Value = fitness of the pair (three or more lineages) minus that of the viral protein without a human partner, on a scale set by negative (0) and fused positive (1) controls, mean of up to three cultures; higher = more likely to interact. Active = false discovery rate below 0.05 (one-sided t-test) in at least one culture. Nearly all pairs are not hits, and differences among them are mostly noise (correlation between cultures about 0.3); most hits were seen in one culture only. Human sequences are the Swiss-Prot entries looked up by gene name; the clone may be another isoform. NSP2 values were corrected by the authors for a growth advantage. Listed are human proteins with a hit and a random twelfth of the others.

B1: ELOVL1, Q9BW60 (protein)
chain: MEAVVNLYQEVMKHADPRIQGYPLMGSPLLMTSILLTYVYFVLSLGPRIMANRKPFQLRGFMIVYNFSLVALSLYIVYEFLMSGWLSTYTWRCDPVDYSNSPEALRMVRVAWLFLFSKFIELMDTVIFILRKKDGQVTFLHVFHHSVLPWSWWWGVKIAPGGMGSFHAMINSSVHVIMYLYYGLSAFGPVAQPYLWWKKHMTAIQLIQFVLVSLHISQYYFMSSCNYQYPVIIHLIWMYGTIFFMLFSNFWYHSYTKGKRLPRALQQNGAPGIAKVKAN
B2: CYP11B1, P15538 (protein)
chain: MALRAKAEVCMAVPWLSLQRAQALGTRAARVPRTVLPFEAMPRRPGNRWLRLLQIWREQGYEDLHLEVHQTFQELGPIFRYDLGGAGMVCVMLPEDVEKLQQVDSLHPHRMSLEPWVAYRQHRGHKCGVFLLNGPEWRFNRLRLNPEVLSPNAVQRFLPMVDAVARDFSQALKKKVLQNARGSLTLDVQPSIFHYTIEASNLALFGERLGLVGHSPSSASLNFLHALEVMFKSTVQLMFMPRSLSRWTSPKVWKEHFEAWDCIFQYGDNCIQKIYQELAFSRPQQYTSIVAELLLNAELSPDAIKANSMELTAGSVDTTVFPLLMTLFELARNPNVQQALRQESLAAAASISEHPQKATTELPLLRAALKETLRLYPVGLFLERVASSDLVLQNYHIPAGTLVRVFLYSLGRNPALFPRPERYNPQRWLDIRGSGRNFYHVPFGFGMRQCLGRRLAEAEMLLLLHHVLKHLQVETLTQEDIKMVYSFILRPSMFPLLTFRAIN
B3: DACH2, Q96NX9 (protein)
chain: MAVSASPVISATSSGAGVPGGLFRAEPLYSTPREPPRLTPNMINSFVVNNHSNSAGGGGRGNTNTNECRMVDMHGMKVASFLMDGQELICLPQVFDLFLKHLVGGLHTVYTKLKRLDISPVVCTVEQVRILRGLGAIQPGVNRCKLITRKDFETLFTDCTNARRKRQMTRKQAVNSSRPGRPPKRSLGVLQENARLLTHAVPGLLSPGLITPTGITAAAMAEAMKLQKMKLMAMNTLQGNGSQNGTESEPDDLNSNTGGSESSWDKDKMQSPFAAPGPQHGIAHAALAGQPGIGGAPTLNPLQQNHLLTNRLDLPFMMMPHPLLPVSLPPASVAMAMNQMNHLNTIANMAAAAQIHSPLSRAGTSVIKERIPESPSPAPSLEENHRPGSQTSSHTSSSVSSSPSQMDHHLERMEEVPVQIPIMKSPLDKIQLTPGQALPAGFPGPFIFADSLSSVETLLTNIQGLLKVALDNARIQEKQIQQEKKELRLELYREREIRENLERQLAVELQSRTTMQKRLKKEKKTKRKLQEALEFESKRREQVEQALKQATTSDSGLRMLKDTGIPDIEIENNGTPHDSAAMQGGNYYCLEMAQQLYSA

The binders below were run against SARS-CoV-2 E (assay: yeast fitness gain over the viral ORF with no human partner (scaled fitness); higher = more likely to interact).
Method: (§1)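 Split mouse DHFR complementation in pooled diploid yeast: human ORFeome clones carry one fragment and viral ORFs the other; barcoded lineages compete in 1 µg/mL methotrexate and fitness is read by barcode sequencing in up to three cultures.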
B1 was tested, and the yeast fitness gain was inactive: 0.196.
With B2 the yeast fitness gain was inactive: 0.0746.
In the case of B3, the yeast fitness gain is reported as inactive: 0.0494.

What follows are binders tested against SARS-CoV-2 M in the same assay as above.
Method: as §1
B1 was tested, and the yeast fitness gain was inactive: 0.0279.
For B2, the yeast fitness gain was inactive: 0.034.
With B3 the yeast fitness gain was inactive: 0.00136.

Each binder was assayed against SARS-CoV-2 N in the same assay as above.
Method: as §1
B1 was tested, and the yeast fitness gain was inactive: 0.0262.
For B2, the yeast fitness gain was inactive: 0.044.

What follows are binders tested against SARS-CoV-2 NSP1 in the same assay as above.
Method: as §1
B1 was tested, and the yeast fitness gain was inactive: 0.0109.
B2 was tested, and the yeast fitness gain was inactive: -0.00161.
With B3 the yeast fitness gain was inactive: -0.0377.

These binders were tested against SARS-CoV-2 NSP10 in the same assay as above.
Method: as §1
For B1, the yeast fitness gain was inactive: 0.032.
B2 was tested, and the yeast fitness gain was inactive: 0.0286.
In the case of B3, the yeast fitness gain is reported as inactive: 0.0315.

These binders were tested against SARS-CoV-2 NSP12 in the same assay as above.
Method: as §1
For B1, the yeast fitness gain was inactive: 0.0205.
B2 was tested, and the yeast fitness gain was inactive: 0.0433.
With B3 the yeast fitness gain was inactive: -0.00558.

The binders below were run against SARS-CoV-2 NSP13 in the same assay as above.
Method: as §1
B1 was tested, and the yeast fitness gain was inactive: 0.0364.
For B2, the yeast fitness gain was active: 0.0824.
In the case of B3, the yeast fitness gain is reported as inactive: 0.0398.

The binders below were run against SARS-CoV-2 NSP14 in the same assay as above.
Method: as §1
B1 was tested, and the yeast fitness gain was inactive: -0.0313.
In the case of B2, the yeast fitness gain is reported as inactive: -0.026.
With B3 the yeast fitness gain was inactive: -0.102.

Each binder was assayed against SARS-CoV-2 NSP15 in the same assay as above.
Method: as §1
For B1, the yeast fitness gain was inactive: 0.0665.
For B2, the yeast fitness gain was inactive: -0.0147.
In the case of B3, the yeast fitness gain is reported as inactive: -0.00658.

These binders were tested against SARS-CoV-2 NSP16 in the same assay as above.
Method: as §1
In the case of B1, the yeast fitness gain is reported as inactive: -0.00922.
In the case of B2, the yeast fitness gain is reported as inactive: -0.0552.
For B3, the yeast fitness gain was inactive: 0.0532.

Each binder was assayed against SARS-CoV-2 NSP2 in the same assay as above.
Method: as §1
In the case of B1, the yeast fitness gain is reported as inactive: -0.107.
In the case of B2, the yeast fitness gain is reported as inactive: -0.12.
For B3, the yeast fitness gain was inactive: -0.119.

These binders were tested against SARS-CoV-2 NSP4 in the same assay as above.
Method: as §1
In the case of B1, the yeast fitness gain is reported as inactive: 0.0952.
In the case of B2, the yeast fitness gain is reported as inactive: -0.0244.
With B3 the yeast fitness gain was inactive: 0.0512.

Each binder was assayed against SARS-CoV-2 NSP5 in the same assay as above.
Method: as §1
With B1 the yeast fitness gain was inactive: 0.0188.
With B2 the yeast fitness gain was inactive: -0.00317.
For B3, the yeast fitness gain was inactive: 0.00101.

The binders below were run against SARS-CoV-2 NSP6 in the same assay as above.
Method: as §1
B1 was tested, and the yeast fitness gain was inactive: 0.0483.
B2 was tested, and the yeast fitness gain was inactive: -0.0085.
For B3, the yeast fitness gain was inactive: 0.0483.

Each binder was assayed against SARS-CoV-2 NSP7 in the same assay as above.
Method: as §1
With B1 the yeast fitness gain was inactive: 0.0578.
In the case of B2, the yeast fitness gain is reported as inactive: -0.017.
In the case of B3, the yeast fitness gain is reported as inactive: -0.0129.

What follows are binders tested against SARS-CoV-2 NSP8 in the same assay as above.
Method: as §1
For B1, the yeast fitness gain was inactive: 0.08.
For B2, the yeast fitness gain was inactive: 0.032.
With B3 the yeast fitness gain was inactive: 0.0352.

These binders were tested against SARS-CoV-2 NSP9 in the same assay as above.
Method: as §1
In the case of B1, the yeast fitness gain is reported as inactive: 0.0443.
B2 was tested, and the yeast fitness gain was inactive: 0.0653.
With B3 the yeast fitness gain was inactive: 0.0672.

These binders were tested against SARS-CoV-2 ORF10 in the same assay as above.
Method: as §1
B1 was tested, and the yeast fitness gain was inactive: 0.0425.
For B2, the yeast fitness gain was inactive: -0.00707.
In the case of B3, the yeast fitness gain is reported as inactive: 0.0461.

These binders were tested against SARS-CoV-2 ORF3A in the same assay as above.
Method: as §1
With B1 the yeast fitness gain was inactive: 0.0617.
In the case of B2, the yeast fitness gain is reported as inactive: 0.036.
In the case of B3, the yeast fitness gain is reported as inactive: 0.0855.

What follows are binders tested against SARS-CoV-2 ORF3B in the same assay as above.
Method: as §1
With B1 the yeast fitness gain was inactive: 0.0289.
In the case of B2, the yeast fitness gain is reported as inactive: -0.00123.
B3 was tested, and the yeast fitness gain was inactive: 0.0199.

The binders below were run against SARS-CoV-2 ORF6 in the same assay as above.
Method: as §1
B1 was tested, and the yeast fitness gain was inactive: 0.0217.
For B2, the yeast fitness gain was inactive: -0.000161.
For B3, the yeast fitness gain was inactive: 0.0275.

What follows are binders tested against SARS-CoV-2 ORF7A in the same assay as above.
Method: as §1
B1 was tested, and the yeast fitness gain was inactive: 0.156.
B2 was tested, and the yeast fitness gain was inactive: 0.0257.
For B3, the yeast fitness gain was inactive: 0.0442.

The binders below were run against SARS-CoV-2 ORF7B in the same assay as above.
Method: as §1
With B1 the yeast fitness gain was active: 0.226.
In the case of B2, the yeast fitness gain is reported as inactive: 0.0145.
For B3, the yeast fitness gain was inactive: 0.0641.

These binders were tested against SARS-CoV-2 ORF8 in the same assay as above.
Method: as §1
With B1 the yeast fitness gain was inactive: -0.0225.
For B2, the yeast fitness gain was inactive: -0.0261.
For B3, the yeast fitness gain was inactive: 0.0174.

These binders were tested against SARS-CoV-2 ORF9B in the same assay as above.
Method: as §1
For B1, the yeast fitness gain was inactive: -0.000208.
In the case of B2, the yeast fitness gain is reported as inactive: -0.00131.
B3 was tested, and the yeast fitness gain was inactive: 0.0489.

These binders were tested against SARS-CoV-2 ORF9Bwu (the 73-codon ORF) in the same assay as above.
Method: as §1
For B1, the yeast fitness gain was inactive: 0.0414.
With B2 the yeast fitness gain was inactive: 0.0106.
With B3 the yeast fitness gain was inactive: 0.0767.

These binders were tested against SARS-CoV-2 S in the same assay as above.
Method: as §1
In the case of B1, the yeast fitness gain is reported as inactive: 0.0355.
In the case of B2, the yeast fitness gain is reported as inactive: 0.0773.
In the case of B3, the yeast fitness gain is reported as inactive: 0.0325.
